From publication PMC5800818, “A Numb–Mdm2 fuzzy complex reveals an isoform-specific involvement of Numb in breast cancer” (The Journal of Cell Biology, 2018)

T1: Numb-PTBi (Numb^20–175), purified (human, UniProt P49757 20-175)
T1 construct: For NMR the protein was isotope-labelled; source: E. coli BL21 Rosetta pLysS, purified (NTA beads, Superdex-200)
T1 sequence (looked up): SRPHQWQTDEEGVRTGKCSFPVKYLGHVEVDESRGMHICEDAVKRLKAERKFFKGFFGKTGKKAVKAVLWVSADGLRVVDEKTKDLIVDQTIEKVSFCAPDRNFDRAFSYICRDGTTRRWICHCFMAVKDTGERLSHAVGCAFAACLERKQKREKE

T2: PTBi harboring the F162V mutation (human, UniProt P49757 20-175, F162V)
T2 construct: also called PTBi F162V; source: purified
T2 sequence (looked up): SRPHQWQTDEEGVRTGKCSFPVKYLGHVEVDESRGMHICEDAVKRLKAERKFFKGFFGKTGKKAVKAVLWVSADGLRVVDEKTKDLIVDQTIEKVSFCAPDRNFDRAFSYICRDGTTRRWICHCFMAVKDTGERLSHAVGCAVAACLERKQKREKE

T3: Numb isoform-1 full-length, purified (human, UniProt P49757-1 1-651)
T3 construct: Numb isoform-1, human; also called Numb-1; FL; source: purified
T3 sequence (looked up): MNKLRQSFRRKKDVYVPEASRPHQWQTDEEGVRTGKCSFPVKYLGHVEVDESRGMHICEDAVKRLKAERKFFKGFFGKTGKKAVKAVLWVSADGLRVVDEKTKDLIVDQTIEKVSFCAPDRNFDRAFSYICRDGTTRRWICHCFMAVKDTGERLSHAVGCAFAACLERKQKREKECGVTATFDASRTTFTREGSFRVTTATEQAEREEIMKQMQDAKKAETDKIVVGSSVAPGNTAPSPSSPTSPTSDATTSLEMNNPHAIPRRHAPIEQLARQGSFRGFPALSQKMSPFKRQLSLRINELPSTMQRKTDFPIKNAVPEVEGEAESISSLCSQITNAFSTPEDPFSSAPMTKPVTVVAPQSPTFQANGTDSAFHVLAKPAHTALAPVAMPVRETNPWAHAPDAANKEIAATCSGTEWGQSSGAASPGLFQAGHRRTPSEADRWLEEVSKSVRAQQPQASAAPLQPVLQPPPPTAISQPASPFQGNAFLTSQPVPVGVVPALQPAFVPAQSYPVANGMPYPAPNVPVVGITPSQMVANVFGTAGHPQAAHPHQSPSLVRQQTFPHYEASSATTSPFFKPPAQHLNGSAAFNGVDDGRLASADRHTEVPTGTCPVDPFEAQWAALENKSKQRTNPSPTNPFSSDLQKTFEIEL


Columns and labels:
Settings in all cases: both partners purified
[1] = biological target: T1, Numb-PTBi (Numb^20–175), purified; test: SEC; Superdex-200; species injected at 300 µM, equimolar amounts
[2] = biological target: T2, PTBi harboring the F162V mutation; test: fluorescence polarisation; 50 nM rhodaminated Mdm2 216–302 with increasing concentrations of the ligand; 10 mM Tris-HCl pH 7.5, 0.15 M NaCl, 0.5 mM EDTA, 1 mM DTT
[3] = biological target: T4, PTBi in complex with GPpY (human | , UniProt P49757 20-175, phosphotyrosine at position 6 (AYIGPpYL)); test: as above
T4 construct: GPpY phosphopeptide, as m14; also called Numb-PTBi–GPpY complex

[4] = biological target: T3, Numb isoform-1 full-length, purified; test: as above
[5] = biological target: T1, Numb-PTBi (Numb^20–175), purified; test: as above

Binder	binding result [1]	binding result [2]	binding result [3]	binding result [4]	binding result [5]
Mdm2^[…], purified (domain or fragment, The GST tag was removed with PreScission protease 'when required'; 15N-labelled in part of the NMR work; source: E. coli BL21 Rosetta, purified) not shown	binds				
rhodamine-labeled Mdm2^[…] (domain or fragment, rhodamine label (site not stated), as m32 with the label; source: purified, rhodaminated in vitro) not shown		binds	binds	binds	binds
